Measurements: PubChem BioAssay (Tox21)
Inconclusive means that the source gave no clear call. Such entries were picked first, then a sample of the others. Where a call stands in place of a potency, no number is given. For some of these results: A potency beside an inconclusive call is a rough fit, not a confirmed value. Activity calls are given as the source filed them. Unless noted, calls follow the shape of the dose curve; as a rule, active = well fitted curve in the direction sought with a large enough effect in the repeat runs; inconclusive = weak or mixed curves; inactive = no such curve, though single readings can be large; an effect the other way counts as inactive or inconclusive.

Experiments:
[1] = qHTS assay to identify small molecule agonists of the peroxisome proliferator-activated receptor delta (PPARd) signaling pathway - cell viability counter screen (AID 743211); settings: PPARd-bla HEK293H viability, CellTiter-Glo luminescence, 17 h; activity change, negative = cytotoxicity: at 62.6 µM (top of the series); also: nearly all actives have a fitted effect of over 55% in size; also: potency is read from the fitted curve at half-maximal effect
How it was run: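 HEK293H PPARd-bla, 3000 cells/well; 5 h preincubation 37C/5% CO2; cpd in DMSO, 17 h 37C; B/G FRET substrate 2 h RT; CellTiter-Glo 30 min RT, luminescence.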

[2] = qHTS assay to identify small molecule agonists of the farnesoid-X-receptor (FXR) signaling pathway - cell viability counter screen (AID 743218); settings: FXR-bla HEK293T viability, CellTiter-Glo luminescence, 16 h; viability change, negative = cytotoxic: at 62.6 µM (top of the series) unless noted; also: nearly all actives have a fitted effect of over 45% in size; also: potency is read from the fitted curve at half-maximal effect
How it was run: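 HEK 293T FXR-bla cells; 5 h pre-incubation, 16 h compound exposure at 37 C; LiveBLAzer substrate 2 h RT, then CellTiter-Glo 30 min RT, luminescence.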

[3] = target: Vitamin D3 receptor (Homo sapiens) (UniProt P11473); assay: qHTS assay to identify small molecule agonists of the vitamin D receptor (VDR) signaling pathway (AID 743222; calls by dose curve; also: potency is read from the fitted curve at half-maximal effect); settings: HEK293T VDR-UAS-bla, beta-lactamase FRET ratio, 16 h; activation: at 63.5 µM (top of the series) unless noted
How it was run: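 VDR-bla cells, 2,000/well; 4 h preincubation 37C; cpd (DMSO) 16 h; LiveBLAzer B/G substrate 2 h RT; fluorescence intensity read.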

[4] = qHTS assay for small molecule activators of the heat shock response signaling pathway (AID 743210; active = well fitted activation curve with a large enough effect in the signal ratio in the repeat runs, with a control signal flat, not every such curve was filed as active; inconclusive = weak or mixed curves; the % refers to the signal ratio;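 also: HeLa cells with beta-lactamase reporter driven by heat shock elements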); settings: HeLa HSE-bla reporter, beta-lactamase ratio, 5 h; activation: at 62.6 µM (top of the series) unless noted
How it was run: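 HeLa HSE-bla cells, overnight plating; cpd in DMSO 5 h, 37 C; LiveBLAzer B/G FRET substrate 2.5 h RT; fluorescence intensity read.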

[5] = target: Peroxisome proliferator-activated receptor delta (Homo sapiens) (UniProt Q03181); assay: qHTS assay to identify small molecule agonists of the peroxisome proliferator-activated receptor delta (PPARd) signaling pathway (AID 743212; calls by dose curve); settings: HEK293H PPARd-UAS-bla, beta-lactamase FRET ratio, 17 h; activation: at 62.6 µM (top of the series) unless noted
How it was run: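 HEK293H PPARd-bla cells; 5 h preincubation 37 C/5% CO2; compound (DMSO) 37 C; LiveBLAzer B/G FRET substrate 2 h RT; fluorescence intensity.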

[6] = qHTS assay to identify small molecule antagonists of the peroxisome proliferator-activated receptor delta (PPARd) signaling pathway - cell viability counter screen (AID 743213); settings: PPARd-bla HEK293H viability, CellTiter-Glo luminescence, 17 h; viability change, negative = cytotoxic: at 62 µM (top of the series) unless noted; also: nearly all actives have a fitted effect of over 50% in size; also: potency is read from the fitted curve at half-maximal effect
How it was run: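 CellTiter-Glo was added to PPARd-bla HEK293H wells following 17 h compound treatment in the presence of 300 nM L165041. Luminescence was recorded after 30 min at room temperature.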

[7] = target: Peroxisome proliferator-activated receptor delta (Homo sapiens) (UniProt Q03181); assay: qHTS assay to identify small molecule antagonists of the peroxisome proliferator-activated receptor delta (PPARd) signaling pathway (AID 743215; active = well fitted inhibition curve with a large enough effect in the signal ratio in the repeat runs, not every such curve was filed as active; inconclusive = weak or mixed curves, or effect the other way; inactive = no such curve, though single readings can be large or run the other way; the % refers to the signal ratio;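 also: cells stimulated with agonist L165041 at 300 nM final during compound exposure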); settings: HEK293H PPARd-UAS-bla, beta-lactamase FRET ratio, antagonist, 17 h; ratio activity, negative = inhibition: at 62 µM (top of the series) unless noted
How it was run: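 Read-out is beta-lactamase FRET fluorescence, measured 2 h after substrate addition at room temperature. Beforehand, UAS-bla HEK293H cells carrying the PPARd reporter were exposed to compounds with L165041 at 300 nM final for 17 h at 37 C.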

[8] = target: Vitamin D3 receptor (Homo sapiens) (UniProt P11473); assay: qHTS assay to identify small molecule antagonists of the vitamin D receptor (VDR) signaling pathway (AID 743223; active = well fitted inhibition curve with a large enough effect in the signal ratio in the repeat runs, not every such curve was filed as active; inconclusive = weak or mixed curves, or effect the other way; inactive = no such curve, though single readings can be large or run the other way; the % refers to the signal ratio); settings: VDR-UAS-bla HEK293T, beta-lactamase FRET ratio, 16 h
How it was run: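 Antagonist mode uses 1alpha,25-dihydroxyvitamin D3 at 3 nM final as stimulus. VDR-bla cells receive compounds in DMSO, incubate 16 h at 37C, then a beta-lactamase FRET substrate for 2 h at room temperature before fluorescence measurement.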

[9] = target: Bile acid receptor (Homo sapiens) (UniProt Q96RI1); assay: qHTS assay to identify small molecule antagonists of the farnesoid-X-receptor (FXR) signaling pathway (AID 743217; active = well fitted inhibition curve with a large enough effect in the signal ratio in the repeat runs, not every such curve was filed as active; inconclusive = weak or mixed curves, or effect the other way; inactive = no such curve, though single readings can be large or run the other way; the % refers to the signal ratio); settings: HEK293T FXR-UAS-bla, beta-lactamase ratio, CDCA-stimulated, 16 h
How it was run: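 HEK 293T FXR-UAS-bla, 5000 cells/well; compound + CDCA 50 uM final; 16 h, 37 °C; B/G FRET substrate 2 h RT; fluorescence.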

[10] = qHTS assay to identify small molecule agonists of the vitamin D receptor (VDR) signaling pathway - cell viability counter screen (AID 743224); settings: VDR-bla HEK293T viability, CellTiter-Glo luminescence, 16 h; activity change, negative = cytotoxicity: at 62.6 µM (top of the series); also: nearly all actives have a fitted effect of over 50% in size; also: potency is read from the fitted curve at half-maximal effect
How it was run: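 Luminescence from CellTiter-Glo, read after 30 min at room temperature, reports viability of VDR-bla cells treated with compounds for 16 h at 37C in the wells used for the beta-lactamase FRET read.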

[11] = target: Bile acid receptor (Homo sapiens) (UniProt Q96RI1); assay: qHTS assay to identify small molecule agonists of the farnesoid-X-receptor (FXR) signaling pathway (AID 743220; active = well fitted activation curve with a large enough effect in the signal ratio in the repeat runs, not every such curve was filed as active; inconclusive = weak or mixed curves, or effect the other way; the % refers to the signal ratio); settings: HEK293T FXR-UAS-bla, beta-lactamase FRET ratio, 16 h; activation: at 62.6 µM (top of the series)
How it was run: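 Beta-lactamase reporter under UAS control in GeneBLAzer FXR HEK 293T cells (5000/well) measured with LiveBLAzer FRET substrate after 2 h at room temperature. Compound exposure lasted 16 h at 37C.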

[12] = qHTS assay to identify small molecule antagonists of the farnesoid-X-receptor (FXR) signaling pathway - cell viability counter screen (AID 743221; active = well fitted cell-killing curve with a large enough effect in the repeat runs, not every such curve was filed as active; inconclusive = weak or mixed curves, or effect the other way; inactive = no such curve, though single readings can be large or run the other way; also: nearly all actives have a fitted effect of over 50% in size); settings: FXR-bla HEK293T viability, CellTiter-Glo luminescence, 16 h; activity change, negative = cytotoxicity: at 62.6 µM (top of the series) unless noted
How it was run: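 Luminescence from CellTiter-Glo measures cytotoxicity in GeneBLAzer FXR-UAS-bla HEK 293T cells. Cells were exposed to compounds with 50 uM chenodeoxycholic acid (final) for 16 h at 37 C, in wells also used for the reporter readout.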
Tags tell the direction and shape of the fitted curve or compound fluorescence and quenching.

Sequence of UniProt P11473 (P11473 whole entry, looked up): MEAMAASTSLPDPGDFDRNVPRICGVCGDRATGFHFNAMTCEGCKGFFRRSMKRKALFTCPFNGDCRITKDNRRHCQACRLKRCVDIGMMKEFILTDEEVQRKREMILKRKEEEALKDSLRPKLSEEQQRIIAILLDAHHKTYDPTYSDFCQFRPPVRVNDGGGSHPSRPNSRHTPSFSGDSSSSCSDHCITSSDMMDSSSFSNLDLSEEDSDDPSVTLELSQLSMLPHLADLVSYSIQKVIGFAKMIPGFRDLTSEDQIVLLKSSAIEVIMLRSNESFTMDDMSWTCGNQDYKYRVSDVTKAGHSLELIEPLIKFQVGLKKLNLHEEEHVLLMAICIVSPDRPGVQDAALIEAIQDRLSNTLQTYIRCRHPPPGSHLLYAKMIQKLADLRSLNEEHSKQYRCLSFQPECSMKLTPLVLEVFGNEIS
Sequence of UniProt Q96RI1 (Q96RI1 whole entry, looked up): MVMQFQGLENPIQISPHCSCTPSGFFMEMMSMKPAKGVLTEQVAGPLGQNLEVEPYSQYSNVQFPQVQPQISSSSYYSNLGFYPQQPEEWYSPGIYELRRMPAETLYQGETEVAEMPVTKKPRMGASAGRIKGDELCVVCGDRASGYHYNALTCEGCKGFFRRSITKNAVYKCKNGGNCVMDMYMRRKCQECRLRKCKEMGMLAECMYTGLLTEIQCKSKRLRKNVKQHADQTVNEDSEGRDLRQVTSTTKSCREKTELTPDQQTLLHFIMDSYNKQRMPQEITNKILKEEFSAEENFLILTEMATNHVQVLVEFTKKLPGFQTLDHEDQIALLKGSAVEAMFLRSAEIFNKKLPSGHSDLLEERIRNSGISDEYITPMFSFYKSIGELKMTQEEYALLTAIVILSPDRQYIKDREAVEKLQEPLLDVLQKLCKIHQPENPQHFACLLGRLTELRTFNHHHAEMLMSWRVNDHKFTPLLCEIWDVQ
Sequence of UniProt Q03181 (Q03181 whole entry, looked up): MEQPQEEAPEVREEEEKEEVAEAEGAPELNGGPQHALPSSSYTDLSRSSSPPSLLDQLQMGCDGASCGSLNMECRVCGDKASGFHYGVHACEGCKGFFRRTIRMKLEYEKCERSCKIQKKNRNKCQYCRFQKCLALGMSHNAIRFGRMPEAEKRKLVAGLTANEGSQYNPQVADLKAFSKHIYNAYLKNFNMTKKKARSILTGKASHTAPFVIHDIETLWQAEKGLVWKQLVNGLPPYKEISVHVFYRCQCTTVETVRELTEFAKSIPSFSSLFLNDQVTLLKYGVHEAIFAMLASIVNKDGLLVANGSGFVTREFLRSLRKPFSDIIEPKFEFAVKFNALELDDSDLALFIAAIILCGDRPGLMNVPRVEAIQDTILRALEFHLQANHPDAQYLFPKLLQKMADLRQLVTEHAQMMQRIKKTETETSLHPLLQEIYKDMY

C[Si]1(C)N[Si](C)(C)N[Si](C)(C)N1
Potency [1]: inconclusive: 21.9 µM [cytotoxic, partial curve]

CCOc1ccc2c(c1)C(C)CC(C)(C)N2 (stereo not drawn)
Potency [1]: inactive

CCCc1nn(C)c2c(=O)[nH]c(-c3cc(S(=O)(=O)N4CCN(C)CC4)ccc3OCC)nc12
Potency [1]: inconclusive: 4.22 µM [cytotoxic, single point]
Potency [2]: inactive
activation [3]: inconclusive: -20.6%

CO[C@@H]1[C@@H](O[C@@H]2O[C@H](C)[C@@H](O[C@H]3C[C@@](C)(O)[C@@H](O)[C@H](C)O3)[C@H](N(C)C)[C@H]2O)[C@@H](CC=O)C[C@@H](C)[C@@H](O[C@@H]2CC[C@H](N(C)C)[C@@H](C)O2)/C=C/C=C/C[C@@H](C)OC(=O)C[C@H]1OC(C)=O
Potency [4]: inactive
activation [5]: inconclusive: 0.255%
Potency [6]: inconclusive: 4.73 µM [cytotoxic, single point]
ratio activity, negative = inhibition [7]: inconclusive: 6.91%
Potency [2]: inconclusive: 11.9 µM [cytotoxic, partial curve, poor fit]
activity change, negative = inhibition ([8]; activity change, negative = inhibition: at 61 µM (top of the series) unless noted): inconclusive: 15.4%

CC(=O)Nc1ccccc1
Potency [1]: inactive
Potency [6]: inactive
Potency ([9]; activity change, negative = inhibition: at 62.6 µM (top of the series) unless noted): inactive
Potency [3]: inactive
activity change, negative = inhibition ([8]; at 61 µM (top of the series)): inconclusive: 2.88%
activity change, negative = inhibition ([8]; at 78.8 µM (top of the series)): inconclusive: -0.827%
Potency [10]: inconclusive: 29.8 µM [rising, partial curve, poor fit]

O=C(Oc1ccccc1)c1ccccc1
activity change, negative = inhibition ([9]; at 62.6 µM (top of the series)): inactive: -0.0882%

CC(=O)CC(=O)Nc1ccc(C)cc1C
Potency [11]: inactive

O=C(O)c1c(O)c(-c2ccccc2)nc2ccccc12
Potency [11]: inactive

CN(C)CCC(c1ccccc1)c1ccccn1 (stereo not drawn)
Potency [12]: inactive

CCCOC(=O)c1ccc(N)cc1
Potency [12]: inactive

O=C(OCCOCCOCCOC(=O)c1ccccc1)c1ccccc1
Potency [3]: inactive

Cn1c(NCCN(CCO)CCCc2ccc([N+](=O)[O-])cc2)cc(=O)n(C)c1=O
Potency [3]: inconclusive: 5.31 µM [rising, full curve, poor fit]

COC(=O)c1ccc(NC(C)=O)cc1OC
Potency [10]: inactive

O=C(O)c1cn(C2CC2)c2cc(Cl)c(F)cc2c1=O
Potency [10]: inactive

c1ccc(-c2ccc(-c3ccccc3)cc2)cc1
Potency [11]: inactive
